Results on 55 compounds are retold here after ChEMBL document CHEMBL4888484, “Replenishing the malaria drug discovery pipeline: Screening and hit evaluation of the MMV Hit Generation Library 1 (HGL1) against asexual blood stage Plasmodium falciparum ,using a nano luciferase reporter read-out” (2022).

Out of some 150,000 compounds screened, about 540 (0.36%) showed an effect of 50% or more. Some of the results follow.

The subject of the test is Plasmodium falciparum. Briefly: Primary screen in NF54 nanoGlo assay, in single point, at 2uM, 72h; a lower Z score goes with more inhibition. Type of test: functional, Erythrocyte. Conditions: timepoint 72 hour.
As to `CC[C@@]1(C)COCCN1C(=O)c1ccnc(C2CC2)n1`, the % Inhibition (in general, the change of the read-out against control, counted positive when it falls) is -4% and the Z score amounted to 0.69.
Take `C[C@H]1CCCN(Cc2cccc3c2OCCO3)C1`: the “% Inhibition” value was -13% and the Z score came to 1.88.
`COc1cc(CN2CC[C@H](NC(=O)c3ccncc3)[C@@H](O)C2)ccc1F`: the “% Inhibition” value is -9% and the Z score is 0.8.
As for `COc1cccc(NC(=O)N2CCC(N3C(=O)COCC3=O)CC2)c1`, the “% Inhibition” value is recorded as 24% and the Z score was -3.15.
`COc1ccc(S(=O)(=O)C2CNC2)cc1`: the “% Inhibition” value is on record as -8% and the Z score amounted to 0.88.
Consider `O=C(Nc1ccccn1)C(=O)N1CCCC1`, for which the “% Inhibition” value is recorded as -10% and the Z score is given as 1.32.
Consider `CCN(CC)C(=O)c1cn(C[C@H]2CCCN(C(=O)c3cc(OC)c(OC)c(OC)c3)C2)nn1`, for which the “% Inhibition” value is -18% and the Z score was determined as 2.64.
In the same order, the values of `Cn1cc(CCC(=O)Nc2cc([C@H]3CCCOC3)[nH]n2)cn1` are -4% and 0.66.
In the same order, the values of `CCOC(=O)C1CCN(C(=O)Cn2c(=O)n(C)c(=O)c3cnn(-c4ccccc4)c32)CC1` are -7% and 1.22.
As for `CO[C@@H](CNC(=O)Nc1ccccc1C(F)(F)F)c1ccsc1`, the “% Inhibition” value is given as -6% and the Z score was 0.82.
As to `Cc1cccc(NC(=O)CN(C)CCF)c1C`, the “% Inhibition” value is -8% and the Z score was determined as 1.08.
`COC[C@H](C)Nc1cccc(N(C)C(C)C)c1`: the “% Inhibition” value came out at 3% and the Z score was -0.29.
As for `COc1ccc(NC(=O)Cn2nc3c4ccc(Cl)cc4ncn3c2=O)cc1OC`, the “% Inhibition” value came to 2% and the Z score is listed as -0.4.
For the compound `COC(=O)C1CCN(Cc2cn(C[C@@H](C)CC(C)C)nn2)CC1`, the “% Inhibition” value is given as -21% and the Z score came out at 2.86.
Consider `Cc1cccc(N2C(=O)c3cccnc3[C@@H]2CC(=O)NC2CCCC2)c1`, for which the “% Inhibition” value is 1% and the Z score was -0.1.
For the compound `CC(C)N(C(=O)N1CCOCC1)C1CCCC1`, the “% Inhibition” value is recorded as -2% and the Z score was found to be 0.2.
With `Cn1c(CO[C@H]2CCCc3c[nH]nc32)cc(=O)n(C)c1=O`, the “% Inhibition” value came out at 1% and the Z score is listed as -0.12.
On to `C[C@@H](Cn1cccn1)c1nc(C2CC2)n[nH]1`, for which the “% Inhibition” value was determined as 7% and the Z score is reported as -0.88.
On to `Cc1ccc2c(c1)NC(=O)c1cc(S(=O)(=O)N(C)c3c(C)cccc3C)ccc1O2`, for which the “% Inhibition” value is listed as -11% and the Z score stood at 1.61.
For `O=C(c1cnc(CC2CC2)s1)N1CCC2(CC1)C[C@H](O)CNC2=O`, in that order: -12% and 2.
Regarding `CCCc1nc(CN(CC)CC(=O)N(C)C)cs1`, the “% Inhibition” value is recorded as -9% and the Z score was 1.08.
For `COCCn1cc(S(=O)(=O)N2CC[C@H](O)CC(C)(C)C2)cn1`, the “% Inhibition” value is 1% and the Z score is listed as -0.19.
In the same order, the values of `COCCCNC(=O)C1Cc2cc(C(F)(F)F)ccc2N2CCN(c3ccc(OC)cc3)CC12` (stereo not given) are -9% and 1.44.
Turning to `COc1ccc(-c2csc3ncnc(Nc4cnn(C)c4)c23)cc1`, the “% Inhibition” value was -4% and the Z score was found to be 0.68.
Consider `Cc1cnc(CN2CC3(CCC2=O)CCN(Cc2ccccc2C#N)CC3)cn1`, for which the “% Inhibition” value is reported as -11% and the Z score was 2.11.
In the same order, the values of `N[C@H]1CN(C(=O)c2ccc3ncccc3c2)C[C@@H]1C1CC1` are -4% and 0.46.
As for `OCC[C@H]1CN(Cc2ccc(-c3ccn[nH]3)o2)CCN1Cc1ccco1`, the “% Inhibition” value is listed as 5% and the Z score is on record as -0.66.
Turning to `Cc1nn2c(Nc3ccc(C(C)C)cc3)c3c(nc2c1-c1ccccc1)CCC3`, the “% Inhibition” value was found to be 1% and the Z score was -0.26.
Take `Cc1ccc(S(=O)(=O)NCCc2nc3c(F)cccc3n2C)cc1`: the “% Inhibition” value was -18% and the Z score came to 2.78.
Turning to `CCOC(=O)N1CCC(NC(=O)c2ccc(-c3cc(N)ncn3)cc2)CC1`, the “% Inhibition” value is listed as -2% and the Z score is recorded as 0.31.
Consider `N#Cc1cc(C(=O)N2CCc3c2cccc3C(F)(F)F)c[nH]1`, for which the “% Inhibition” value is on record as -4% and the Z score is listed as 0.84.
For `CCc1nn(C)cc1NC(=O)[C@@H]1CCc2ccc(OC)cc21`, the “% Inhibition” value stood at 0% and the Z score is listed as -0.03.
Turning to `NC(=O)c1ccc(N2CCC(C(F)(F)F)CC2)nn1`, the “% Inhibition” value is -13% and the Z score was 1.59.
In the same order, the values of `Cc1ccc(CNC(=O)NCC(=O)N2CCC[C@H]2c2cc(C)on2)cc1` are 1% and -0.23.
`CCC1(CNS(=O)(=O)c2ccsc2C#N)CC1`: the “% Inhibition” value was -6% and the Z score is recorded as 0.75.
Turning to `C[C@H]1CN(C(=O)c2cccs2)CCN1C(=O)c1cccs1`, the “% Inhibition” value was found to be 1% and the Z score is -0.18.
In the same order, the values of `COc1ccnc(CN2CCC[C@H](c3nc(-c4ccccc4)c[nH]3)C2)c1OC` are 69% and -7.6.
`O=C(CNS(=O)(=O)Cc1ccccc1)Nc1cccnc1`: the “% Inhibition” value is listed as -3% and the Z score was 0.52.
As to `O=C(Nc1ccc(CNc2ccccc2)cc1)[C@H]1CCCOC1`, the “% Inhibition” value is given as -7% and the Z score stood at 0.9.
In the case of `Nc1nc2c(c(N3C[C@H]4CC=CC[C@H]4C3)n1)CCNCC2`, the “% Inhibition” value is on record as -14% and the Z score is 1.4.
Regarding `Cc1ccc(N2C(=O)CN(CC(C)C)[C@H]3CS(=O)(=O)C[C@H]32)cc1`, the “% Inhibition” value is given as 37% and the Z score was -1.17.
Regarding `Cc1cccc([C@@H]2CCCN2C(=O)CCc2ccn(C)n2)n1`, the “% Inhibition” value was -30% and the Z score is 3.47.
For `CCc1nnc(CN(CC)C(=O)Nc2cc(C)ccc2-n2cnnn2)o1`, in that order: -30% and 3.06.
As to `CO[C@H]1CCOC[C@@H]1NC(=O)NC(c1ccccc1Cl)C(C)C` (stereo not given in full), the “% Inhibition” value is recorded as -6% and the Z score worked out at 1.2.
As to `CC1CCN(CN2CC(=O)N(Cc3ccccc3C#N)C2=O)CC1`, the “% Inhibition” value is given as -7% and the Z score is on record as 0.71.
On to `CNC(=O)C1(N2CCC[C@H]2C(=O)NCc2ccccc2)CCCCC1`, for which the “% Inhibition” value was determined as 26% and the Z score is -2.98.
In the same order, the values of `O=C([C@@H]1C=CCN1)N(CC1CC1)C1CCCCC1` are -12% and 1.26.
On to `Cc1c[nH]c([C@H](C)NC(=O)c2cc3ccccc3o2)n1`, for which the “% Inhibition” value is on record as -15% and the Z score was 1.53.
In the same order, the values of `CC[C@@H](c1ccncc1)N(CC)C(=O)c1cc(Cn2cc(C)cn2)on1` are -14% and 2.03.
As to `Cc1cc(=O)n(CC(=O)Nc2ccc(N(C)C)cc2)c(-c2ccccc2)n1`, the “% Inhibition” value is -8% and the Z score was 1.35.
Take `CCc1ncc(CN2CCC3(CCC(=O)N(CCOC)C3)CC2)cn1`: the “% Inhibition” value is given as -4% and the Z score is reported as 0.79.
In the case of `COCc1cc(NC(=O)N2CCC([C@@H]3CCCO3)CC2)ncn1`, the “% Inhibition” value was -8% and the Z score is 1.06.
On to `Cc1ccc(CN(C)C(=O)C2CCN(c3ccc4nncn4n3)CC2)o1`, for which the “% Inhibition” value is reported as -18% and the Z score amounted to 2.81.
With `CCNS(=O)(=O)C1CCN(c2nnc(C)n2CC2CCOC2)C1` (stereo not given), the “% Inhibition” value is reported as -3% and the Z score is reported as 0.24.
For the compound `Cc1ccc(N(CC(=O)N2CCCCC2)C(=O)c2cnns2)cc1`, the “% Inhibition” value is recorded as -18% and the Z score turned out to be 2.72.
